According to US12398178B2, “Collections of peptides, peptide agents, and methods of use thereof” (Parabilis Medicines, Inc., priority 2018, dated 2025):
Not every detail of the peptide structures is certain; ends, links or a residue may be inferred. Starred links: 1 amine or outer side, 2 acyl side, 3 side chain; linkers in the order of their positions; H or OH if unused. Positions of bridges follow the written chain, without caps; N, C: chain ends. Residues, ends and D or L forms follow the SMILES beside them. No end group written: not given here. Phenylene(1,4-NHCOCH2)2 = O=C(C[*:1])Nc1ccc(NC(=O)C[*:2])cc1; X9 = O=C(C[*:1])O[C@@H]1CCC[C@H](OC(=O)C[*:2])C1; X2 = O=C(C[*:1])O[C@@H]1CC[C@H](OC(=O)C[*:2])C1; X5 = CN(C(=O)C[*:1])c1ccc(N(C)C(=O)C[*:2])cc1; X8 = COc1cc(NC(=O)C[*:2])c(OC)cc1NC(=O)C[*:1]; X3 = O=C(C[*:1])Nc1ccccc1NC(=O)C[*:2]

Experiment: Measurement of LogK (log k IAM by HPLC on IAM.PC.DD2 column)
Format: physicochemical
Settings: 50 mM ammonium acetate pH 7.4 / acetonitrile, 30° C.
Procedure: Measurement of LogK: LogK values were measured on a Agilent 1260 HPLC with UV detector (254,280 nm) using a IAM.PC.DD2 100×4.6 mm column (Regis Technologies 1-774011-300) with a 6.5 min gradient of 0-90% B with mobile phase A of 50 mM ammonium acetate pH 7.4, and mobile phase B of Acetonitrile. The temperature was 30° C., the flow rate 1.5 mL/min, and the injection volume 3-5 uL. Calibration mixture IAM was purchased from Bio-mimetic Chromatography Ltd and used to run calibration, calculate CHI IAM value, then calculate logk IAM using equation: log k IAM=0.046*CHI IAM+0.42.

Compound	LogK
CC[C@H](C)[C@@H]1NC(=O)[C@H](CC(C)C)NC(=O)[C@H](C)NC(=O)[C@H](C)NC(=O)[C@H](Cc2c[nH]cn2)NC(=O)[C@H](CCC(=O)O)NC(=O)[C@@H](NC(=O)[C@H](C)NC(=O)[C@H](Cc2c[nH]c3ccccc23)NC(=O)[C@H](CC(C)C)NC(=O)[C@H](C)NC(=O)[C@@H]2CCCN2C(=O)[C@H](CC(=O)O)NC(=O)[C@H](C)N)CSCC(=O)O[C@@H]2CCC[C@@H](C2)OC(=O)CSC[C@@H](C(=O)N[C@@H](CCC(=O)O)C(=O)N[C@H](C(=O)N[C@@H](CCC(N)=O)C(N)=O)[C@@H](C)O)NC1=O [Compound 46] (H-ADPALWACEHAALICETQ-NH2; linker 8-15 via X9; N-terminus and C-terminus assumed)	1.24
GPAKPEAPGEDASPQELHDYYEILDNYLDWVA-NH2 (C-terminus assumed) [Compound 26]	1.81
COc1cc2c(OC)cc1NC(=O)CSC[C@@H](C(=O)N[C@@H](CCC(=O)O)C(=O)N[C@@H](CC(C)C)C(=O)N[C@H](C(N)=O)C(C)C)NC(=O)[C@H](Cc1c[nH]cn1)NC(=O)[C@H](CC(C)C)NC(=O)[C@H](C)NC(=O)[C@H](C)NC(=O)[C@H](Cc1c[nH]c3ccccc13)NC(=O)[C@H](CCC(=O)O)NC(=O)[C@@H](NC(=O)[C@H](CCCNC(=N)N)NC(=O)[C@H](Cc1c[nH]cn1)NC(=O)[C@@H](NC(=O)[C@H](C)NC(=O)[C@@H]1CCCN1C(=O)[C@H](CC(=O)O)NC(=O)[C@H](C)N)[C@@H](C)O)CSCC(=O)N2 [Compound 34]	1.32
CC[C@H](C)[C@@H]1NC(=O)[C@@H](NC(=O)[C@H](CCC(=O)O)NC(=O)[C@H](CC(=O)O)NC(=O)[C@H](CCC(=O)O)NC(=O)[C@H](C)NC(=O)[C@@H]2CCCN2C(=O)[C@H](CC(=O)O)NC(=O)[C@H](C)N)CSCC(=O)Nc2ccc(cc2)NC(=O)CSC[C@@H](C(=O)N[C@@H](CCCNC(=N)N)C(=O)N[C@@H](Cc2c[nH]c3ccccc23)C(=O)N[C@@H](Cc2c[nH]c3ccccc23)C(N)=O)NC(=O)[C@H](CCSC)NC(=O)[C@H](Cc2c[nH]cn2)NC(=O)[C@H](C)NC(=O)[C@H](C)NC(=O)[C@H](CC(C)C)NC1=O [Compound 8] (H-ADPAEDECILAAHMCRWW-NH2; linker 8-15 via Phenylene(1,4-NHCOCH2)2; N-terminus and C-terminus assumed)	1.85
CC[C@H](C)[C@@H]1NC(=O)[C@H](CC(C)C)NC(=O)[C@H](C)NC(=O)[C@H](C)NC(=O)[C@H](Cc2c[nH]cn2)NC(=O)[C@H](CCC(=O)O)NC(=O)[C@@H](NC(=O)[C@H](C)NC(=O)[C@H](Cc2c[nH]c3ccccc23)NC(=O)[C@H](CC(C)C)NC(=O)[C@H](C)NC(=O)[C@@H]2CCCN2C(=O)[C@H](CC(=O)O)NC(=O)[C@H](C)N)CSCC(=O)Nc2cc(OC)c(cc2OC)NC(=O)CSC[C@@H](C(=O)N[C@@H](CCC(=O)O)C(=O)N[C@H](C(=O)N[C@@H](CCC(N)=O)C(N)=O)[C@@H](C)O)NC1=O [Compound 43] (H-ADPALWACEHAALICETQ-NH2; linker 8-15 via X8; N-terminus and C-terminus assumed)	1.19
CC(C)C[C@@H]1NC(=O)[C@H](C)NC(=O)[C@H](C)NC(=O)[C@H](Cc2c[nH]c3ccccc23)NC(=O)[C@H](CCC(=O)O)NC(=O)[C@@H](NC(=O)[C@H](CCCNC(=N)N)NC(=O)[C@H](Cc2c[nH]cn2)NC(=O)[C@@H](NC(=O)[C@H](C)NC(=O)[C@@H]2CCCN2C(=O)[C@H](CC(=O)O)NC(=O)[C@H](C)N)[C@@H](C)O)CSCC(=O)Nc2cc(F)c(cc2F)NC(=O)CSC[C@@H](C(=O)N[C@@H](CCC(=O)O)C(=O)N[C@@H](CC(C)C)C(=O)N[C@H](C(N)=O)C(C)C)NC(=O)[C@H](Cc2c[nH]cn2)NC1=O [Compound 32]	1.34
CC(C)C[C@@H]1NC(=O)[C@H](C)NC(=O)[C@H](C)NC(=O)[C@H](Cc2c[nH]cn2)NC(=O)[C@H](CCC(=O)O)NC(=O)[C@@H](NC(=O)[C@H](CCC(N)=O)NC(=O)[C@H](Cc2c[nH]c3ccccc23)NC(=O)[C@@H]2CCCN2C(=O)[C@H](C)NC(=O)[C@@H]2CCCN2C(=O)[C@H](CC(=O)O)NC(=O)[C@H](C)N)CSCC(=O)Nc2ccc(cc2)NC(=O)CSC[C@@H](C(=O)N[C@@H](CCC(=O)O)C(=O)N[C@@H](CC(C)C)C(=O)N[C@@H](CCC(=O)O)C(N)=O)NC(=O)[C@H](CC(C)C)NC1=O [Compound 11] (H-ADPAPWQCEHAALLCELE-NH2; linker 8-15 via Phenylene(1,4-NHCOCH2)2; N-terminus and C-terminus assumed)	1.74
GPAKPEAPGEDASPNELYYYYDELHYYLHDVA-NH2 (C-terminus assumed) [Compound 25]	1.68
GPAKPEAPGEDASPDELHTYYDTLYHYLTSVA-NH2 (C-terminus assumed) [Compound 22]	1.87
GPAKPEAPGEDASPIELWEYYESLETYLDNVA-NH2 (C-terminus assumed) [Compound 29]	1.86
GPAKPEAPGEDASPNELHYYYWELDSYLENVA-NH2 (C-terminus assumed) [Compound 27]	1.69
CC(C)C[C@@H]1NC(=O)[C@H](C)NC(=O)[C@H](C)NC(=O)[C@H](Cc2c[nH]c3ccccc23)NC(=O)[C@H](CCC(=O)O)NC(=O)[C@@H](NC(=O)[C@H](CCCNC(=N)N)NC(=O)[C@H](Cc2c[nH]cn2)NC(=O)[C@@H](NC(=O)[C@H](C)NC(=O)[C@@H]2CCCN2C(=O)[C@H](CC(=O)O)NC(=O)[C@H](C)N)[C@@H](C)O)CSCC(=O)O[C@@H]2CC[C@@H](C2)OC(=O)CSC[C@@H](C(=O)N[C@@H](CCC(=O)O)C(=O)N[C@@H](CC(C)C)C(=O)N[C@H](C(N)=O)C(C)C)NC(=O)[C@H](Cc2c[nH]cn2)NC1=O [Compound 38]	1.25
CC[C@H](C)[C@@H]1NC(=O)[C@H](CC(C)C)NC(=O)[C@H](C)NC(=O)[C@H](C)NC(=O)[C@H](Cc2c[nH]cn2)NC(=O)[C@H](CCC(=O)O)NC(=O)[C@@H](NC(=O)[C@H](C)NC(=O)[C@H](Cc2c[nH]c3ccccc23)NC(=O)[C@H](CC(C)C)NC(=O)[C@H](C)NC(=O)[C@@H]2CCCN2C(=O)[C@H](CC(=O)O)NC(=O)[C@H](C)N)CSCC(=O)Nc2ccc(cc2)NC(=O)CSC[C@@H](C(=O)N[C@@H](CCC(=O)O)C(=O)N[C@H](C(=O)N[C@@H](CCC(N)=O)C(N)=O)[C@@H](C)O)NC1=O [Compound 2] (H-ADPALWACEHAALICETQ-NH2; linker 8-15 via Phenylene(1,4-NHCOCH2)2; N-terminus and C-terminus assumed)	1.16
CC(C)C[C@@H]1NC(=O)[C@H](C)NC(=O)[C@H](C)NC(=O)[C@H](Cc2c[nH]c3ccccc23)NC(=O)[C@H](CCC(=O)O)NC(=O)[C@@H](NC(=O)[C@H](CCCNC(=N)N)NC(=O)[C@H](Cc2c[nH]cn2)NC(=O)[C@@H](NC(=O)[C@H](C)NC(=O)[C@@H]2CCCN2C(=O)[C@H](CC(=O)O)NC(=O)[C@H](C)N)[C@@H](C)O)CSCC(=O)O[C@H]2CC[C@H](CC2)OC(=O)CSC[C@@H](C(=O)N[C@@H](CCC(=O)O)C(=O)N[C@@H](CC(C)C)C(=O)N[C@H](C(N)=O)C(C)C)NC(=O)[C@H](Cc2c[nH]cn2)NC1=O [Compound 36]	1.35
CC[C@H](C)[C@@H]1NC(=O)[C@H](CC(C)C)NC(=O)[C@H](C)NC(=O)[C@H](C)NC(=O)[C@H](Cc2c[nH]cn2)NC(=O)[C@H](CCC(=O)O)NC(=O)[C@@H](NC(=O)[C@H](C)NC(=O)[C@H](Cc2c[nH]c3ccccc23)NC(=O)[C@H](CC(C)C)NC(=O)[C@H](C)NC(=O)[C@@H]2CCCN2C(=O)[C@H](CC(=O)O)NC(=O)[C@H](C)N)CSCC(=O)N(C)c2ccc(cc2)N(C)C(=O)CSC[C@@H](C(=O)N[C@@H](CCC(=O)O)C(=O)N[C@H](C(=O)N[C@@H](CCC(N)=O)C(N)=O)[C@@H](C)O)NC1=O [Compound 40] (H-ADPALWACEHAALICETQ-NH2; linker 8-15 via X5; N-terminus and C-terminus assumed)	1.12
CC(C)C[C@@H]1NC(=O)[C@H](C)NC(=O)[C@H](C)NC(=O)[C@H](Cc2c[nH]c3ccccc23)NC(=O)[C@H](CCC(=O)O)NC(=O)[C@@H](NC(=O)[C@H](CCCNC(=N)N)NC(=O)[C@H](Cc2c[nH]cn2)NC(=O)[C@@H](NC(=O)[C@H](C)NC(=O)[C@@H]2CCCN2C(=O)[C@H](CC(=O)O)NC(=O)[C@H](C)N)[C@@H](C)O)CSCC(=O)Nc2ccccc2NC(=O)CSC[C@@H](C(=O)N[C@@H](CCC(=O)O)C(=O)N[C@@H](CC(C)C)C(=O)N[C@H](C(N)=O)C(C)C)NC(=O)[C@H](Cc2c[nH]cn2)NC1=O [Compound 35]	1.16
CC[C@H](C)[C@@H]1NC(=O)[C@H](CC(C)C)NC(=O)[C@H](C)NC(=O)[C@H](C)NC(=O)[C@H](Cc2c[nH]cn2)NC(=O)[C@H](CCC(=O)O)NC(=O)[C@@H](NC(=O)[C@H](C)NC(=O)[C@H](Cc2c[nH]c3ccccc23)NC(=O)[C@H](CC(C)C)NC(=O)[C@H](C)NC(=O)[C@@H]2CCCN2C(=O)[C@H](CC(=O)O)NC(=O)[C@H](C)N)CSCC(=O)Nc2ccccc2NC(=O)CSC[C@@H](C(=O)N[C@@H](CCC(=O)O)C(=O)N[C@H](C(=O)N[C@@H](CCC(N)=O)C(N)=O)[C@@H](C)O)NC1=O [Compound 44] (H-ADPALWACEHAALICETQ-NH2; linker 8-15 via X3; N-terminus and C-terminus assumed)	1.08
GPAKPEAPGEDASPDELHHYYQNLETYLYRVA-NH2 (C-terminus assumed) [Compound 15]	1.67
CC[C@H](C)[C@@H]1NC(=O)[C@H](CC(C)C)NC(=O)[C@H](C)NC(=O)[C@H](C)NC(=O)[C@H](Cc2c[nH]cn2)NC(=O)[C@H](CCC(=O)O)NC(=O)[C@@H](NC(=O)[C@H](C)NC(=O)[C@H](Cc2c[nH]c3ccccc23)NC(=O)[C@H](CC(C)C)NC(=O)[C@H](C)NC(=O)[C@@H]2CCCN2C(=O)[C@H](CC(=O)O)NC(=O)[C@H](C)N)CSCC(=O)O[C@@H]2CC[C@@H](C2)OC(=O)CSC[C@@H](C(=O)N[C@@H](CCC(=O)O)C(=O)N[C@H](C(=O)N[C@@H](CCC(N)=O)C(N)=O)[C@@H](C)O)NC1=O [Compound 47] (H-ADPALWACEHAALICETQ-NH2; linker 8-15 via X2; N-terminus and C-terminus assumed)	1.21
